# According to the supplement of paper PMC8728848:
# The other results are listed elsewhere or left out.
# Tests used:
# Assay in all cases: glycan array binding signal (z-score within array); higher = stronger binding
# Details in all cases: glycan notation: IUPAC condensed, linker removed
# [1] = molecular target: Gal(a1-3)Gal(b1-4)[Fuc(a1-3)]GlcNAc
# How it was run: (§1)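 Arrays were curated from the Consortium for Functional Glycomics database, 3228 in total, and kept only where the protein sequence was available. Binding is expressed as a within-array Z-score. This score was averaged across arrays of the same protein sequence at different concentrations or buffers and across linkers, and negative values can be read as non-binding.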
# [2] = molecular target: Gal(a1-3)GalNAc
# How it was run: as §1
# [3] = molecular target: Gal(a1-3)[Gal(a1-4)]Gal(b1-4)GlcNAc
# How it was run: as §1
# [4] = molecular target: Gal(a1-4)Gal(b1-4)Glc
# How it was run: as §1
# [5] = molecular target: Gal(a1-4)Gal(b1-4)GlcNAc
# How it was run: as §1
# [6] = molecular target: Gal(a1-4)GlcNAc
# How it was run: as §1
# [7] = molecular target: Gal(a1-6)Glc
# How it was run: as §1
# [8] = molecular target: Gal(b1-2)Gal
# How it was run: as §1
# [9] = molecular target: Gal(b1-3)Gal
# How it was run: as §1
# [10] = molecular target: Gal(b1-3)GalNAc
# How it was run: as §1
# [11] = molecular target: Gal(b1-3)GalNAc(b1-4)Gal(b1-4)Glc
# How it was run: as §1
# [12] = molecular target: Gal(b1-3)GalNAc(b1-4)[Neu5Ac(a2-3)]Gal(b1-4)Glc
# How it was run: as §1
# [13] = molecular target: Gal(b1-3)GlcNAc
# How it was run: as §1
# [14] = molecular target: Gal(b1-3)GlcNAc(b1-3)Gal(b1-4)Glc
# How it was run: as §1
# [15] = molecular target: Gal(b1-3)[Fuc(a1-4)]GlcNAc
# How it was run: as §1
# [16] = molecular target: Gal(b1-3)[GlcNAc(b1-6)]GalNAc
# How it was run: as §1
# [17] = molecular target: Gal(b1-3)[Neu5Ac(a2-6)]GalNAc
# How it was run: as §1
# [18] = molecular target: Gal(b1-3)[Neu5Ac(a2-6)]GlcNAc(b1-4)Gal(b1-4)Glc
# How it was run: as §1
# [19] = molecular target: Gal(b1-3)[Neu5Ac(b2-6)]GalNAc
# How it was run: as §1
# [20] = molecular target: Gal(b1-4)GalNAc(a1-3)[Fuc(a1-2)]Gal(b1-4)GlcNAc
# How it was run: as §1
# [21] = molecular target: Gal(b1-4)Glc
# How it was run: as §1
# [22] = molecular target: Gal(b1-4)Glc6S
# How it was run: as §1
# [23] = molecular target: Gal(b1-4)GlcNAc
# How it was run: as §1
# [24] = molecular target: Gal(b1-4)GlcNAc(b1-3)Gal(b1-4)Glc
# How it was run: as §1
# [25] = molecular target: Gal(b1-4)GlcNAc(b1-3)Gal(b1-4)GlcNAc
# How it was run: as §1
# [26] = molecular target: Gal(b1-4)GlcNAc(b1-3)Gal(b1-4)GlcNAc(b1-3)Gal(b1-4)GlcNAc
# How it was run: as §1
# [27] = molecular target: Gal(b1-4)GlcNAc(b1-3)Gal(b1-4)[Fuc(a1-3)]GlcNAc(b1-3)Gal(b1-4)[Fuc(a1-3)]GlcNAc
# How it was run: as §1
# [28] = molecular target: Gal(b1-4)GlcNAc(b1-3)GalNAc
# How it was run: as §1
# [29] = molecular target: Gal(b1-4)GlcNAc(b1-3)[Gal(b1-4)GlcNAc(b1-6)]GalNAc
# How it was run: as §1
# [30] = molecular target: Gal(b1-4)GlcNAc(b1-6)GalNAc
# How it was run: as §1
# [31] = molecular target: Gal(b1-4)GlcNAc(b1-6)[Gal(b1-3)]GalNAc
# How it was run: as §1
# [32] = molecular target: Gal3S(b1-3)GalNAc
# How it was run: as §1
# [33] = molecular target: Gal3S(b1-3)GlcNAc
# How it was run: as §1
# [34] = molecular target: Gal3S(b1-3)[Fuc(a1-4)]GlcNAc
# How it was run: as §1
# [35] = molecular target: Gal3S(b1-4)Glc
# How it was run: as §1
# [36] = molecular target: Gal3S(b1-4)Glc6S
# How it was run: as §1
# [37] = molecular target: Gal3S(b1-4)GlcNAc
# How it was run: as §1
# [38] = molecular target: Gal4S(b1-4)GlcNAc
# How it was run: as §1
# [39] = molecular target: Gal6S(b1-4)Glc
# How it was run: as §1
# [40] = molecular target: Gal6S(b1-4)Glc6S
# How it was run: as §1
# [41] = molecular target: GalNAc(a1-3)Gal
# How it was run: as §1
# [42] = molecular target: GalNAc(a1-3)GalNAc
# How it was run: as §1
# [43] = molecular target: GalNAc(b1-3)GalNAc
# How it was run: as §1
# [44] = molecular target: GalNAc(b1-4)GlcNAc
# How it was run: as §1
# [45] = molecular target: Glc(a1-4)Glc
# How it was run: as §1
# [46] = molecular target: Glc(b1-4)Glc
# How it was run: as §1
# [47] = molecular target: Glc(b1-6)Glc
# How it was run: as §1
# [48] = molecular target: GlcNAc(b1-2)Gal(b1-3)GalNAc
# How it was run: as §1
# [49] = molecular target: GlcNAc(b1-3)Gal
# How it was run: as §1
# [50] = molecular target: GlcNAc(b1-3)Gal(b1-3)GalNAc
# How it was run: as §1
# [51] = molecular target: GlcNAc(b1-3)Gal(b1-4)Glc
# How it was run: as §1
# [52] = molecular target: GlcNAc(b1-3)Gal(b1-4)GlcNAc
# How it was run: as §1
# [53] = molecular target: GlcNAc(b1-3)[GlcNAc(b1-6)]GalNAc
# How it was run: as §1
# [54] = molecular target: GlcNAc(b1-3)[GlcNAc(b1-6)]GlcNAc(b1-4)GlcNAc
# How it was run: as §1
# [55] = molecular target: GlcNAc(b1-4)GlcNAc(b1-4)GlcNAc
# How it was run: as §1
# [56] = molecular target: GlcNAc(b1-4)[GlcNAc(b1-6)]GalNAc
# How it was run: as §1
# [57] = molecular target: GlcNAc(b1-6)GalNAc
# How it was run: as §1
binder,measurement,setting,value
"Hip/Pap (Homo sapiens), Q06141 (protein) MLPPMALPSVSWMLLSCLMLLSQVQGEEPQRELPSARIRCPKGSKAYGSHCYALFLSPKSWTDADLACQKRPSGNLVSVLSGAEGSFVSSLVKSIGNSYSYVWIGLHDPTQGTEPNGEGWEWSSSDVMNYFAWERNPSTISSPGHCASLSRSTAFLRWKDYNCNVRLPYVCKFTD",glycan array binding signal (z-score),[1],0.228
same,glycan array binding signal (z-score),[2],-0.16
same,glycan array binding signal (z-score),[3],-0.164
same,glycan array binding signal (z-score),[4],0.012
same,glycan array binding signal (z-score),[5],-0.155
same,glycan array binding signal (z-score),[6],-0.046
same,glycan array binding signal (z-score),[7],0.232
same,glycan array binding signal (z-score),[8],-0.156
same,glycan array binding signal (z-score),[9],-0.107
same,glycan array binding signal (z-score),[10],-0.147
same,glycan array binding signal (z-score),[11],-0.156
same,glycan array binding signal (z-score),[12],-0.185
same,glycan array binding signal (z-score),[13],-0.137
same,glycan array binding signal (z-score),[14],-0.154
same,glycan array binding signal (z-score),[15],-0.168
same,glycan array binding signal (z-score),[16],-0.159
same,glycan array binding signal (z-score),[17],-0.098
same,glycan array binding signal (z-score),[18],-0.105
same,glycan array binding signal (z-score),[19],-0.141
same,glycan array binding signal (z-score),[20],-0.153
same,glycan array binding signal (z-score),[21],-0.114
same,glycan array binding signal (z-score),[22],-0.129
same,glycan array binding signal (z-score),[23],-0.175
same,glycan array binding signal (z-score),[24],-0.133
same,glycan array binding signal (z-score),[25],-0.157
same,glycan array binding signal (z-score),[26],-0.173
same,glycan array binding signal (z-score),[27],-0.061
same,glycan array binding signal (z-score),[28],-0.184
same,glycan array binding signal (z-score),[29],-0.129
same,glycan array binding signal (z-score),[30],-0.167
same,glycan array binding signal (z-score),[31],-0.154
same,glycan array binding signal (z-score),[32],-0.175
same,glycan array binding signal (z-score),[33],-0.187
same,glycan array binding signal (z-score),[34],-0.164
same,glycan array binding signal (z-score),[35],0.278
same,glycan array binding signal (z-score),[36],-0.066
same,glycan array binding signal (z-score),[37],-0.166
same,glycan array binding signal (z-score),[38],-0.181
same,glycan array binding signal (z-score),[39],-0.162
same,glycan array binding signal (z-score),[40],-0.157
same,glycan array binding signal (z-score),[41],-0.144
same,glycan array binding signal (z-score),[42],0.07
same,glycan array binding signal (z-score),[43],-0.135
same,glycan array binding signal (z-score),[44],-0.094
same,glycan array binding signal (z-score),[45],0.806
same,glycan array binding signal (z-score),[46],-0.182
same,glycan array binding signal (z-score),[47],0.091
same,glycan array binding signal (z-score),[48],-0.099
same,glycan array binding signal (z-score),[49],0.046
same,glycan array binding signal (z-score),[50],-0.057
same,glycan array binding signal (z-score),[51],-0.125
same,glycan array binding signal (z-score),[52],-0.105
same,glycan array binding signal (z-score),[53],0.063
same,glycan array binding signal (z-score),[54],0.29
same,glycan array binding signal (z-score),[55],-0.149
same,glycan array binding signal (z-score),[56],0.084
same,glycan array binding signal (z-score),[57],0.032
